Source: paper PMC4336329 (PLoS ONE, 2015)
The campaign covered roughly 310,000 compounds. About 2,200 (0.71%) showed an effect of 50% or more. The effect is printed as a negative number. Some of the results follow.

Biological target: human ether-à-go-go-related gene (hERG) potassium channel (human, UniProt Q12809)
Experiment: primary screen, population patch clamp on CHO cells stably expressing hERG

Sequence of human ether-à-go-go-related gene (hERG) potassium channel (Q12809 whole entry, looked up): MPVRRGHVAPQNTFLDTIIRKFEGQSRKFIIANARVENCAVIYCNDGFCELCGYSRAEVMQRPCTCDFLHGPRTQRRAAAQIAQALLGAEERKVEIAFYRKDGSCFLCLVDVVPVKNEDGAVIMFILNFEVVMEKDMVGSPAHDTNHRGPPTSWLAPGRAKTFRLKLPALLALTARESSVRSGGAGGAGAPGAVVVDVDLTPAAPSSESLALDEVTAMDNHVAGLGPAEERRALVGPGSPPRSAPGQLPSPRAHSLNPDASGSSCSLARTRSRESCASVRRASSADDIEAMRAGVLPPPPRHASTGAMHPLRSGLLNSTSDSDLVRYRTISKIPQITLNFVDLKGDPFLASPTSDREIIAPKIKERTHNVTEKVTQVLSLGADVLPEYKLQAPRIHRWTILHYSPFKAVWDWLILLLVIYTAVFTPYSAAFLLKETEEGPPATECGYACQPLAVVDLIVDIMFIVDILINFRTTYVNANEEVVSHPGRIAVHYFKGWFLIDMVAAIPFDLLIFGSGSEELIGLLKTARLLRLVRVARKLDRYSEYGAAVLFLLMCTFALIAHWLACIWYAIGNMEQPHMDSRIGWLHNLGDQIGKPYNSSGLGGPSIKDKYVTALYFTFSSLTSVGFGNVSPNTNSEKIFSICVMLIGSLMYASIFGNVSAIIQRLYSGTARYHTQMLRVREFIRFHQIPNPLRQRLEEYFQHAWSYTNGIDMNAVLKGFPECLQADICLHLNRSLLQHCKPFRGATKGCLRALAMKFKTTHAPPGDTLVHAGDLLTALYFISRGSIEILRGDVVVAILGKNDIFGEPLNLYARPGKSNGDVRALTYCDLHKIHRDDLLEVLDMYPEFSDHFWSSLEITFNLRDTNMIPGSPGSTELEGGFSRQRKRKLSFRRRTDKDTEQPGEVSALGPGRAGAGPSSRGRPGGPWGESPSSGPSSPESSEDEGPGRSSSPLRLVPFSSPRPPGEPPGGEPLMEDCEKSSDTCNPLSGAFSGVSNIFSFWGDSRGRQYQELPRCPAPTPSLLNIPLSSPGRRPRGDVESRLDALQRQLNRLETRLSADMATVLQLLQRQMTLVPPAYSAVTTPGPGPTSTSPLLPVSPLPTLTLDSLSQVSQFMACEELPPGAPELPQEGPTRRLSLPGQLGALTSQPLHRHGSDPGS

In order of rising “hERG current change (%, negative = inhibition) at 1uM” value:
1. O=C(Nc1cccc(Cl)c1)c1cncn1-c1ccc(F)cc1  -52.8%
2. O=C(NCCOCC(F)(F)C(F)F)c1cc(F)c(F)cc1Cl  -19.6%
3. Cl.O=C(NC1CCN(Cc2ccccc2)CC1)c1ccccc1OCc1ccccc1  -13.2%
4. Cc1[nH]c2ccccc2c1C(=O)C(C)OC(=O)C1CCC1 (centres unmarked)  -12%
5. COc1ccc(N2CCN(CC(O)COc3cc(C)ccc3C)CC2)cc1.Cl (centres unmarked)  -9.86%
6. CCC1Oc2ccc(C)cc2N(CC(=O)NCCC2=CCCCC2)C1=O (centres unmarked)  -6.85%
7. CCCn1c(CNS(=O)(=O)c2ccc(C)cc2)nc2ccccc21  -5.34%
8. NC(=O)c1ccsc1NC(=O)COC(=O)c1ccc([N+](=O)[O-])o1  -4.73%
9. CC(C)Nc1nc(NC(C)C)nc(OCCOC(=O)Nc2ccccc2)n1  -3.81%
10. COc1ccc(C(=O)NC(=S)NCCc2ccccc2)cc1  -2.75%
11. Cc1cc(C(=O)N2CCC(Cc3ccccc3)CC2)c(C)o1  -1.41%
12. Cl.Oc1cccc(Nc2c3ccccc3nc3ccccc23)c1  -1.24%
13. COc1ccc(NCc2nnc(SCC(=O)NCc3ccccc3)n2-c2ccccc2OC)cc1  -0.185%
14. O=C(Nc1ccc(Br)cc1)c1ccc(N2C(=O)C3CCCCC3C2=O)cc1 (centres unmarked)  -0.16%
15. Cc1cccc(N=C2NC(=O)c3cc([N+](=O)[O-])ccc32)c1  -0.123%
16. O=C(N1CCOCC1)N1CCN(c2ccccn2)CC1  -0.0091%
17. COCC1CCCN(Cc2nc(-c3ccc4c(c3)OCO4)no2)C1 (centres unmarked)  0.195%
18. Cn1c(C(=O)Nc2ccc3c(c2)OCCO3)cc2sccc21  0.819%
19. O=C(O)CSC(C(=O)Nc1ccc(Br)cc1)c1ccccc1 (centres unmarked)  1.04%
20. O=C(OCc1nnc(-c2cccs2)o1)C1=NN(c2ccccc2)C(=O)CC1  1.34%
21. CNC(=O)c1nn(-c2ccccc2)ccc1=O  1.56%
22. Cc1nc(C(=O)NC2CC2)sc1C1(C)CC(c2ccccc2)=NO1 (centres unmarked)  1.73%
23. Cc1ccc(O)c(C(CC(=O)NCc2cccnc2)c2ccccc2)c1 (centres unmarked)  1.99%
24. Cc1cc(C)n2nc(SCc3cc(=O)oc4ccc5ccccc5c34)nc2n1  2.1%
25. CSCC[C@H](NC(=O)OC(C)(C)C)C(=O)N/N=C/c1ccc2nccnc2c1  2.34%
26. COc1cccc(N2CCN(C(=O)C3CCC(=O)N(C4CCCCCC4)C3)CC2)c1 (centres unmarked)  3.41%
27. COc1cccc(C(=O)Nc2ccc(C(F)(F)F)n(C)c2=O)c1  3.46%
28. Nc1nc2ccc(O)cc2s1  3.51%
29. COC(=O)c1cc(S(=O)(=O)NCc2ccc(F)cc2)cn1C  3.53%
30. COc1ccc(OC)c(CN(CCN2CCOCC2)S(=O)(=O)c2ccc(NC(C)=O)cc2)c1  3.55%
31. CC1=NN(S(=O)(=O)c2ccc(F)cc2)C(=O)c2ccccc2O1  4.16%
32. CC(C)Cc1nnc(NC(=O)CN2C(=O)NC3(CCCCC3)C2=O)s1  4.58%
33. Cc1ncc(CO)c2cc(C(=O)Nc3ccccc3Cl)c(=Nc3cccc(C(N)=O)c3)oc12  5.45%
34. Clc1ccc(CSc2nccn2Cc2ccccc2)cc1  5.8%
35. O=C1CCC[C@H]2c3[nH]c4ccccc4c3CCN12  5.85%
36. O=C(CCS(=O)(=O)Cc1ccccc1F)NCCc1ccc(Cl)cc1  5.86%
37. CCc1cccc(NC(=O)CSCc2cc(=O)[nH][nH]2)c1  6.33%
38. COc1ccc(NC(=O)CCc2nnc3ccc(NCc4ccco4)nn23)cc1OC  6.63%
39. CN(c1ccccc1)S(=O)(=O)c1ccc(NC(=O)c2ccc(-c3ccccc3)cc2)cc1  6.91%
40. O=C(CSc1nnc(CN2CCOCC2)n1-c1ccc(Cl)cc1)Nc1cc(Cl)ccc1O  7.12%
41. O=C(Nc1ccc(F)cc1)C1CCCN1S(=O)(=O)c1ccc(Br)cc1 (centres unmarked)  7.19%
42. O=C(CSc1nccc(-c2cccs2)n1)Nc1ccc(Cl)cc1  7.66%
43. COC(=O)c1ccc([C@H]2CC(=O)O2)cc1  8.35%
44. Cc1cc(C)c(S(=O)(=O)N2CCCCC2CCNC(=O)C(=O)NC2CC2)c(C)c1 (centres unmarked)  8.37%
45. C=CCC1(CC=C)CCCN1C(=O)c1cc(COc2ccc(F)c(F)c2)on1  8.91%
46. C/C(=N\NC(=O)c1cc(C(C)(C)C)[nH]n1)C12CC3CC(CC(C3)C1)C2  9.14%
47. O=C1C(Nc2ccccc2)=C2CCCC=C2N1c1ccccc1  9.18%
48. COc1ccc(NC(=O)COC(=O)C2CC(=O)N(Cc3ccc(C)cc3)C2)cc1 (centres unmarked)  9.44%
49. CCCOc1ccc(/C(O)=C2/C(=O)C(=O)N(c3cc(C)on3)C2c2ccc(C(=O)OC)cc2)cc1 (centres unmarked)  9.44%
50. C[C@H]1C[C@@H]2[C@H]([C@@H](O)C[C@@]3(C)[C@H]2CC[C@]3(O)C(=O)CO)[C@@]2(C)C=CC(=O)C=C12  9.59%
51. Cc1ccc(OCc2ccc(C(=O)Nc3ccc(S(N)(=O)=O)cc3)o2)cc1  9.81%
52. Cc1cc2oc(C(=O)Nc3ccc(S(=O)(=O)N4CCCC(C)C4)cc3)cc(=O)c2cc1Cl (centres unmarked)  10.5%
53. COc1cc(NS(=O)(=O)c2cn(C)cn2)cc(OC)c1  10.5%
54. COc1ccc(NC(=O)NNC(=O)COc2ccc3cc(Br)ccc3c2)c(OC)c1  11%
55. N#Cc1cc2c([nH]c1=S)CCCC2  11.1%
56. C=CCNC(=S)/C(=C(\[O-])c1ccc(Cl)cc1)[n+]1ccccc1  11.2%
57. O=S1(=O)N[C@@H](CC2=CCCCC2)C2CCCCC2O1 (some centres unmarked)  11.3%
58. Cc1cccc(N2CCN(C(=S)NCc3ccco3)CC2)c1C  11.3%
59. COc1ccc(C(NC(=O)/C=C/c2ccco2)c2ccc(OC)c(OC)c2)cc1OC  11.4%
60. Cc1cc(NC(=O)c2cccc(S(=O)(=O)N3CCCCC3)c2)no1  11.5%
61. CCOC(=O)/C=C/C(=O)Nc1ccc(-c2nnc3n2CCCCC3)cc1  11.7%
62. Cc1csc(NC(=O)Nc2ccccc2[N+](=O)[O-])n1  11.8%
63. O=C(O)c1ccc(N/N=C/c2ccc(F)c(F)c2)cc1.O=S(=O)(O)O  11.8%
64. S=C(NN=C1C2CC3CC(C2)CC1C3)Nc1ccccc1  11.9%
65. CNC(=O)c1ccsc1NC(=O)c1coc2ccccc2c1=O  11.9%
66. CC1CCc2sc(C(=O)Nc3nnc(SCc4ccc(F)cc4)s3)cc2C1 (centres unmarked)  12.4%
67. CC(=O)Nc1c(N)c2ccccc2oc1=O  12.6%
68. Cc1sc2nc(C)n(/N=C/N(C)C)c(=O)c2c1C  13.1%
69. CCN(CC)CCCN(Cc1cc2cc3c(cc2[nH]c1=O)OCO3)C(=S)NC  13.2%
70. O=C(c1ccc2oc(CCCc3ccccc3)nc2c1)N1CCCC1  13.6%
71. Cc1cc(N/N=C/c2cccc(Cl)c2)nc(-n2nc(C)cc2C)n1  13.8%
72. Cc1ccccc1OCc1nc(-c2ccccc2)no1  14.1%
73. CS(=O)(=O)N(CC(=O)Nc1ccc(S(=O)(=O)N2CCOCC2)cc1)c1ccccc1Br  14.5%
74. COc1ccc(NC(=O)c2ccccc2NC(=O)C2CC=CCC2C(=O)O)cc1 (centres unmarked)  14.8%
75. CCCCn1nnnc1SCC(=O)Nc1ccc2c(c1)OCCO2  14.9%
76. CCOC(=O)c1cccc(C(=O)Oc2ccccc2)n1  15.2%
77. COc1ccc(N(C(C)=O)C2C=CS(=O)(=O)C2)c(OC)c1 (centres unmarked)  15.6%
78. C/C(=N\OCC(=O)Nc1c(C)cc(C)cc1C)c1ccc2c(c1)OCCO2  16.4%
79. Cc1ccc(S(=O)(=O)N2CCN(c3ncccn3)CC2)cc1C  16.5%
80. O=C1CN(c2ccc(Cl)cc2)C2(CCCCC2)S1  16.6%
81. N#Cc1c(-c2ccccc2)nc(-c2ccccc2)nc1N1CCOCC1  17.2%
82. CCOC(=O)C1CCN(S(=O)(=O)c2ccc3[nH]c4c(c3c2)CCCC4)CC1  17.4%
83. COC(=O)c1cccc(S(=O)(=O)N2CCN(c3nc4ccccc4s3)CC2)c1  17.5%
84. O=C(O)/C=C/C(=O)N1CCN(Cc2ccc3c(c2)OCO3)CC1  17.7%
85. CCOc1ccc(NC(=O)CC(c2ccccc2)c2ccc(F)cc2)cc1 (centres unmarked)  18.8%
86. CN(C)CCNC(=O)Nc1ccc(F)cc1F  20.7%
87. O=c1c(Cl)c(N2CCOCC2)cnn1-c1nc2ccccc2[nH]1  21.5%
88. Cl.FC(F)(F)Oc1ccc(C2NCc3ccccc3-n3cccc32)cc1 (centres unmarked)  23.6%
89. Cc1cccc(N2CCN(C(=O)CCCCCn3c(=S)[nH]c4ccc(N5CCOCC5)cc4c3=O)CC2)c1C  26.9%
